This is an account of results in PMC12820563.

The list shows a part of the results. The list includes weakly bound sequences.

The target of the assay is T1, MBP-FoxP3dN (UniProt Q99JB6).
T1 sequence: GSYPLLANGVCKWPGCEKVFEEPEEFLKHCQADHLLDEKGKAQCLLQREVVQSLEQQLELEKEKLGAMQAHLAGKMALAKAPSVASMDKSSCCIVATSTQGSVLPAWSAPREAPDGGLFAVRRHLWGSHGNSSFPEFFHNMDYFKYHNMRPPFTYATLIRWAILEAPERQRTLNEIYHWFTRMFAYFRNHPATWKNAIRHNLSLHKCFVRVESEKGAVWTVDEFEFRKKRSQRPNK
Nature of the assay: PD-seq (MBP pull-down with sequencing). The following applies: 20 mM Tris-HCl pH 7.5, 100 mM NaCl, 1.5 mM MgCl2, 0.4 uM protein, 0.1 uM dsDNA library, 30 min, room temperature, amylose pull-down; high values mean tight binding; double strand, one strand shown.
With “GATGATTGTTCTCCCAGCTGATGAATTGAATGGGTCGAGTAAACAAATTTTCCTAATCTTTCTGTTCAAGCGCCATCTAC”, the binding signal (RPM ratio (pull-down/input)) was found to be 0.399.
Take “GATGATTGTTCTCCCAGCTGATGAATTGGACATCTCGAGTAAACAAATTTTCCTAATCTTTCTGTTCAAGCGCCATCTAC”: the binding signal (RPM ratio (pull-down/input)) was 0.583.
“GATGATTGTTCTCCCAGCTGATGAATTAGGGATCTCGAGTAAACAAATTTTCCTAATCTTTCTGTTCAAGCGCCATCTAC”: the binding signal (RPM ratio (pull-down/input)) was found to be 0.41.
Consider “GATGATTGTTCTCCCAGCTGATGAATTACCTTAATCGAGTAAACAAATTTTCCTAATCTTTCTGTTCAAGCGCCATCTAC”, for which the binding signal (RPM ratio (pull-down/input)) turned out to be 0.256.
Turning to “GATGATTGTTCTCCCAGCTGATGAATTGATGACGTCGAGTAAACAAATTTTCCTAATCTTTCTGTTCAAGCGCCATCTAC”, the binding signal (RPM ratio (pull-down/input)) stood at 0.587.
The value for “GATGATTGTTCTCCCAGCTGATGAATTTAAGTCGTCGAGTAAACAAATTTTCCTAATCTTTCTGTTCAAGCGCCATCTAC” was 0.452.
The value for “GATGATTGTTCTCCCAGCTGATGAATTATAACGATCGAGTAAACAAATTTTCCTAATCTTTCTGTTCAAGCGCCATCTAC” was 0.391.
“GATGATTGTTCTCCCAGCTGATGAATTCCTACTTTCGAGTAAACAAATTTTCCTAATCTTTCTGTTCAAGCGCCATCTAC”: the binding signal (RPM ratio (pull-down/input)) is 0.281.
On to “GATGATTGTTCTCCCAGCTGATGAATTATCTCCTTCGAGTAAACAAATTTTCCTAATCTTTCTGTTCAAGCGCCATCTAC”, for which the binding signal (RPM ratio (pull-down/input)) came out at 0.3.
For “GATGATTGTTCTCCCAGCTGATGAATTCACCCACTCGAGTAAACAAATTTTCCTAATCTTTCTGTTCAAGCGCCATCTAC”, the binding signal (RPM ratio (pull-down/input)) worked out at 0.333.
For “GATGATTGTTCTCCCAGCTGATGAATTATTGGTTTCGAGTAAACAAATTTTCCTAATCTTTCTGTTCAAGCGCCATCTAC” the value was 1.97; for “GATGATTGTTCTCCCAGCTGATGAATTCTGGGCATCGAGTAAACAAATTTTCCTAATCTTTCTGTTCAAGCGCCATCTAC”, 0.572; for “GATGATTGTTCTCCCAGCTGATGAATTTTCAACATCGAGTAAACAAATTTTCCTAATCTTTCTGTTCAAGCGCCATCTAC”, 0.465.
On to “GATGATTGTTCTCCCAGCTGATGAATTCAGTAGGTCGAGTAAACAAATTTTCCTAATCTTTCTGTTCAAGCGCCATCTAC”, for which the binding signal (RPM ratio (pull-down/input)) was 0.419.
For “GATGATTGTTCTCCCAGCTGATGAATTGTATGGTTCGAGTAAACAAATTTTCCTAATCTTTCTGTTCAAGCGCCATCTAC”, the binding signal (RPM ratio (pull-down/input)) was 1.94.
Turning to “GATGATTGTTCTCCCAGCTGATGAATTCTCGCCGTCGAGTAAACAAATTTTCCTAATCTTTCTGTTCAAGCGCCATCTAC”, the binding signal (RPM ratio (pull-down/input)) came to 0.493.
“GATGATTGTTCTCCCAGCTGATGAATTTGCTCGTTCGAGTAAACAAATTTTCCTAATCTTTCTGTTCAAGCGCCATCTAC”: the binding signal (RPM ratio (pull-down/input)) was 0.725.
On to “GATGATTGTTCTCCCAGCTGATGAATTGCTCACTTCGAGTAAACAAATTTTCCTAATCTTTCTGTTCAAGCGCCATCTAC”, for which the binding signal (RPM ratio (pull-down/input)) came out at 0.581.
On to “GATGATTGTTCTCCCAGCTGATGAATTGCCCGCGTCGAGTAAACAAATTTTCCTAATCTTTCTGTTCAAGCGCCATCTAC”, for which the binding signal (RPM ratio (pull-down/input)) stood at 0.671.
As for “GATGATTGTTCTCCCAGCTGATGAATTAATCGATTCGAGTAAACAAATTTTCCTAATCTTTCTGTTCAAGCGCCATCTAC”, the binding signal (RPM ratio (pull-down/input)) came to 0.346.
For “GATGATTGTTCTCCCAGCTGATGAATTCTCATAGTCGAGTAAACAAATTTTCCTAATCTTTCTGTTCAAGCGCCATCTAC” the value was 0.265; for “GATGATTGTTCTCCCAGCTGATGAATTGCGGAGGTCGAGTAAACAAATTTTCCTAATCTTTCTGTTCAAGCGCCATCTAC”, 0.483.
In the case of “GATGATTGTTCTCCCAGCTGATGAATTCTTCTCATCGAGTAAACAAATTTTCCTAATCTTTCTGTTCAAGCGCCATCTAC”, the binding signal (RPM ratio (pull-down/input)) is 0.242.
In the case of “GATGATTGTTCTCCCAGCTGATGAATTCACATAATCGAGTAAACAAATTTTCCTAATCTTTCTGTTCAAGCGCCATCTAC”, the binding signal (RPM ratio (pull-down/input)) amounted to 0.306.
Turning to “GATGATTGTTCTCCCAGCTGATGAATTAAACTTTTCGAGTAAACAAATTTTCCTAATCTTTCTGTTCAAGCGCCATCTAC”, the binding signal (RPM ratio (pull-down/input)) is 0.354.
For the sequence “GATGATTGTTCTCCCAGCTGATGAATTAAAGGTTTCGAGTAAACAAATTTTCCTAATCTTTCTGTTCAAGCGCCATCTAC”, the binding signal (RPM ratio (pull-down/input)) stood at 0.403.
In the case of “GATGATTGTTCTCCCAGCTGATGAATTAGTGGAATCGAGTAAACAAATTTTCCTAATCTTTCTGTTCAAGCGCCATCTAC”, the binding signal (RPM ratio (pull-down/input)) worked out at 0.336.
Regarding “GATGATTGTTCTCCCAGCTGATGAATTGTGGTTGTCGAGTAAACAAATTTTCCTAATCTTTCTGTTCAAGCGCCATCTAC”, the binding signal (RPM ratio (pull-down/input)) came to 2.44.
For “GATGATTGTTCTCCCAGCTGATGAATTACGACCGTCGAGTAAACAAATTTTCCTAATCTTTCTGTTCAAGCGCCATCTAC”, the binding signal (RPM ratio (pull-down/input)) was determined as 0.429.
In the case of “GATGATTGTTCTCCCAGCTGATGAATTAATGTGTTCGAGTAAACAAATTTTCCTAATCTTTCTGTTCAAGCGCCATCTAC”, the binding signal (RPM ratio (pull-down/input)) was determined as 1.77.
On to “GATGATTGTTCTCCCAGCTGATGAATTGCCCATCTCGAGTAAACAAATTTTCCTAATCTTTCTGTTCAAGCGCCATCTAC”, for which the binding signal (RPM ratio (pull-down/input)) was determined as 0.523.
With “GATGATTGTTCTCCCAGCTGATGAATTGGGGCAGTCGAGTAAACAAATTTTCCTAATCTTTCTGTTCAAGCGCCATCTAC”, the binding signal (RPM ratio (pull-down/input)) worked out at 0.385.
“GATGATTGTTCTCCCAGCTGATGAATTACGTGACTCGAGTAAACAAATTTTCCTAATCTTTCTGTTCAAGCGCCATCTAC”: the binding signal (RPM ratio (pull-down/input)) is 0.737.
“GATGATTGTTCTCCCAGCTGATGAATTTGGGATCTCGAGTAAACAAATTTTCCTAATCTTTCTGTTCAAGCGCCATCTAC”: the binding signal (RPM ratio (pull-down/input)) turned out to be 0.452.
Regarding “GATGATTGTTCTCCCAGCTGATGAATTATTCTATTCGAGTAAACAAATTTTCCTAATCTTTCTGTTCAAGCGCCATCTAC”, the binding signal (RPM ratio (pull-down/input)) was determined as 0.374.
In the case of “GATGATTGTTCTCCCAGCTGATGAATTGAGAACTTCGAGTAAACAAATTTTCCTAATCTTTCTGTTCAAGCGCCATCTAC”, the binding signal (RPM ratio (pull-down/input)) turned out to be 0.21.
With “GATGATTGTTCTCCCAGCTGATGAATTGGGTAGCTCGAGTAAACAAATTTTCCTAATCTTTCTGTTCAAGCGCCATCTAC”, the binding signal (RPM ratio (pull-down/input)) stood at 0.45.
For “GATGATTGTTCTCCCAGCTGATGAATTCATATAGTCGAGTAAACAAATTTTCCTAATCTTTCTGTTCAAGCGCCATCTAC”, the binding signal (RPM ratio (pull-down/input)) is 0.688.
For “GATGATTGTTCTCCCAGCTGATGAATTTCTGGCATCGAGTAAACAAATTTTCCTAATCTTTCTGTTCAAGCGCCATCTAC” the value was 0.698.
Turning to “GATGATTGTTCTCCCAGCTGATGAATTGGACTCGTCGAGTAAACAAATTTTCCTAATCTTTCTGTTCAAGCGCCATCTAC”, the binding signal (RPM ratio (pull-down/input)) worked out at 0.349.
